Screen size: about 310,000 compounds; about 2,200 (0.71%) showed an effect of 50% or more. The effect is printed as a negative number. The list shows a part of the results.
The molecules below were run against human ether-à-go-go-related gene (hERG) potassium channel (human, UniProt Q12809) (assay: primary screen, population patch clamp on CHO cells stably expressing hERG).
Chain of human ether-à-go-go-related gene (hERG) potassium channel (Q12809 whole entry, looked up): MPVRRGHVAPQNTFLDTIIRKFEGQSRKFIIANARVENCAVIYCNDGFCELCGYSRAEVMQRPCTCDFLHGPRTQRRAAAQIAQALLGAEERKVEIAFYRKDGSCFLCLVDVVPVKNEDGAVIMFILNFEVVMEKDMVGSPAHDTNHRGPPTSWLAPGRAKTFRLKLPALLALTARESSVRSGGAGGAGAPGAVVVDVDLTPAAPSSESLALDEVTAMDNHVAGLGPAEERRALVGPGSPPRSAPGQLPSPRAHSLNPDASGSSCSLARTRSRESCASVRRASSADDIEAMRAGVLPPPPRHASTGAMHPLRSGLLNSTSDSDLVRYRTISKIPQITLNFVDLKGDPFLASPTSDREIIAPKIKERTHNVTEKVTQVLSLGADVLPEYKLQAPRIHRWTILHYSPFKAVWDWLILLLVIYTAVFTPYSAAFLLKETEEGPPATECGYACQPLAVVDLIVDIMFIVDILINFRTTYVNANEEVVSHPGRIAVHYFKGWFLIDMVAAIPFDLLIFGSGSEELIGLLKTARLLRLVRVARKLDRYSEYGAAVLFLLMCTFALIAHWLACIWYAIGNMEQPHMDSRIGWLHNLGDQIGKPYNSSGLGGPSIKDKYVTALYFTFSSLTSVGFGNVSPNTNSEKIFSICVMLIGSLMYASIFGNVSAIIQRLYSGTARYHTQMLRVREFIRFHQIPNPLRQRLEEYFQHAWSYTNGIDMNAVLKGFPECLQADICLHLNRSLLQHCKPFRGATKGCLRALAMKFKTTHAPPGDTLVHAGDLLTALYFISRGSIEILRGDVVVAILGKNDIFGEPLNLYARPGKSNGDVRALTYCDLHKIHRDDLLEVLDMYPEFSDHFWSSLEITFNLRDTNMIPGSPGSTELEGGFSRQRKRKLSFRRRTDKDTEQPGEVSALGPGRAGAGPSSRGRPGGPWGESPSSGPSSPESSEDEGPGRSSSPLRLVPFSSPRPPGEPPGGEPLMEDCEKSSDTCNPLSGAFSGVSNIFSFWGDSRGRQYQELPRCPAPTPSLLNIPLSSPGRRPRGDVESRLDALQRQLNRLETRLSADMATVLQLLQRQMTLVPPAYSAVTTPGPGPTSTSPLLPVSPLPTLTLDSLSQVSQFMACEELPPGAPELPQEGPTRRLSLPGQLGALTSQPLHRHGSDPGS

Structure (SMILES)	hERG current change (%, negative = inhibition) at 1uM [%]
O=C(NNC(=O)C1CCC1)c1cccc(Cl)c1	5.6
O=C(Nc1nc2c(F)cc(F)cc2s1)C1COc2ccccc2O1 (stereo not drawn)	8.72
COc1ccc(N(CC(=O)NCCSc2ccccc2)S(=O)(=O)c2ccccc2)cc1OC	7.09
CC(C)CN1C(=O)/C(=C/c2ccco2)NC1=S	17
CC1=CC=CN2CC(O)CN=C12.Cl (stereo not drawn)	9.24
Cl.NCC1CC2c3ccccc3C1c1ccccc12 (stereo not drawn)	10.2
O=C(NCCCO)C(=O)Nc1cc2c3c(c1)CCN3C(=O)CC2	10.4
Cc1nc2c(sc3nc(N4CCOCC4)c4c(c32)CC(C)(C)OC4)c(-c2ccccc2)c1C(=O)O	11
CCC(CC)C(=O)Nc1nnc(SCC(=O)NC2CC2)s1	14
O=C(c1cc(F)ccc1F)N1CCC(N2CCC(C(=O)N3CCCC3)CC2)CC1	16.9
CCn1c(=O)n(CC(=O)Nc2cccc(OC)c2)c(=O)c2ccccc21	-1.16
COc1ccccc1NC(=S)NC(NC(C)=O)C(Cl)(Cl)Cl (stereo not drawn)	8.67
COc1ccc(NC(=O)CC2C(=O)N(c3ccccc3)C(=O)N2CCc2cccs2)cc1 (stereo not drawn)	10
Cc1cc(Br)c(NC(=O)CCl)c(Br)c1	-3.82
NS(=O)(=O)c1ccc(CCNC(=O)CCc2ccccc2)cc1	-3.02
Cc1c(NC(=O)Nc2cccc(Cl)c2Cl)c(=O)n(-c2ccccc2)n1C	-2.55
O=C(N/N=C/c1cccc(O)c1)NC1CCCCC1	5.29
Cc1cc(C)n(-c2nc(N(C)C)nc(N(C)C)n2)n1	10.7
CN(C)Cc1c(O)ccc2c1O/C(=C\C=C\c1ccccc1)C2=O	5.72
CC(Cc1ccccc1)NC(=O)c1cc2ccccc2o1 (stereo not drawn)	16.1

Structure (SMILES)	hERG current change (%, negative = inhibition) at 1uM [%]
COc1ccc(CC(=O)Nc2ccc(C(N)=O)cc2)cc1	10.1
O=C(O)C1(c2ccccc2)CCN(S(=O)(=O)c2ccc(F)c(F)c2)CC1	2.32
CC(C)N(C)Cc1nnnn1CC(=O)NCCc1cccc(C(F)(F)F)c1	9.44
CCOC(=O)c1sc(NC(=O)C2CC2)cc1C	9.63
CC1=C(C(=O)N2CCOCC2)C(c2ccc(-c3ccccc3)cc2)NC(=S)N1 (stereo not drawn)	-4.56
COC(=O)CC1C(=O)NCCN1C(=S)Nc1cccc(C)c1 (stereo not drawn)	4.32
Cc1ccc(NC(=O)C2CCN(S(=O)(=O)c3ccc4c(c3)NC(=O)C(C)S4)CC2)c(Cl)c1 (stereo not drawn)	13.2
Cc1nc(NC(=O)/C=C/c2ccc(Cl)cc2Cl)sc1C(=O)N(C)C	18.8
CCOc1ccc(CCNC(=O)c2cc3sccc3n2CC)cc1OCC	14.1
O=S(=O)(Nc1ncccn1)c1ccc(NS(=O)(=O)c2cccc(Cl)c2Cl)cc1	29.5
O=S(=O)(c1ccc(-c2ccccn2)s1)N1CCC2(CC1)OCCO2	7.7
COC(=O)N/N=C/c1ccc(OCCSc2ccc(Cl)cc2)c(OC)c1	1.07
O=C(COC(=O)CCC(=O)c1ccc2c(c1)OCCO2)NCc1ccc2c(c1)OCO2	16.3
O=C(NCc1ccccc1)c1ccccc1Br	1.52
CN(C)CCNC(=O)c1c(CSc2ccccc2)noc1C(=O)NCc1ccccc1	8.93
CC(=O)c1nnn(-c2ccc([N+](=O)[O-])cc2)c1C	5.63
O=C(CC1SC(=Nc2ccc(OC(F)F)cc2)N(CCC2=CCCCC2)C1=O)Nc1ccccc1F (stereo not drawn)	15.3
COc1ccc(OC(C)C(=O)Nc2ccccc2C(F)(F)F)cc1 (stereo not drawn)	8.42
N#C/C=C1\n2c(nc3ccccc32)OC12CCCCC2	-15.5
CC1(C)Cc2c(cnn2-c2ccccc2)C(NC(=O)CCN2CCCCO2)C1 (stereo not drawn)	26.2

Structure (SMILES)	hERG current change (%, negative = inhibition) at 1uM [%]
CN1CCC(NC(=O)NC2CCCCC2)CC1	9.81
Cc1nc(C)c(-c2ccnc(/N=C/NO)n2)s1	4.86
CC(OC(=O)C1CCCCC1)c1nc2ccccc2[nH]1 (stereo not drawn)	13.5
Cc1cccc(C(=O)NCCc2ccc(S(N)(=O)=O)cc2)c1[N+](=O)[O-]	-3.07
O=C(NCCN1C(=O)CCC1=O)c1ccncc1	3.93
O=C(NN1C(=O)c2ccccc2NC1c1ccc([N+](=O)[O-])o1)c1ccc([N+](=O)[O-])cc1 (stereo not drawn)	-0.694
C=CCN(C(C)=O)C1CC(=O)N(c2ccc(OCCC)cc2)C1=O (stereo not drawn)	4.41
COc1ccc(-c2cc(=O)oc3cc(OCC(=O)N4CCOCC4)ccc23)cc1	0.189
Cc1cccc(NC(=O)N2CCCCCC2)c1C	14.7
O=C1NC(=O)N(c2ccccc2)C1=O	8.9
Cc1cccc(Nc2ccc(NCc3ccccc3)nn2)c1	2.55
C=CCn1c(SCC(=O)Nc2ccc(C)cc2C)nnc1-c1cccnc1	-4.46
Cc1noc(C)c1COc1ccccc1C(=O)Nc1ccc(C(N)=O)cc1	9.47
NC(=O)C1CCN(S(=O)(=O)Cc2ccccc2Cl)CC1	7.91
COc1ccc(/C=N/c2nc3ccccc3n2CCN2CCCCC2)cc1OC	10.9
CCOc1ccc(C)cc1S(=O)(=O)NC1CCCCCC1	4.97
COc1ccccc1-n1c(-c2ccc(Cl)cc2)c[nH]c1=S	9.1
CC1(C)OC(=O)C(=CNc2ncccn2)C(=O)O1	5.28
COc1cccc(NC(=S)Nc2cc(C)cc(C)n2)c1	-7.21
NS(=O)(=O)c1ccc(CCNC(=O)CN2CCN(c3ccccc3O)CC2)cc1	13.1
